Source: article PMC6919601, “Identification of Plasmodium dipeptidyl aminopeptidase allosteric inhibitors by high throughput screening” (PLoS ONE, 2019)
Screen size: about 110,000 compounds; about 230 (0.21%) showed an effect of 50% or more. This is one part of the list.

Molecular target: DPAP1 (Plasmodium falciparum, UniProt Q8IIJ9)
Assay: primary screen, percent inhibition; read by cleavage of a fluorogenic dipeptide substrate; higher = more effect of the substance
Design: species or system P. falciparum D10 trophozoite lysates; single well
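Further: 30 min substrate incubation versus DMSO and 10 µM JCP410 controls.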

Sequence of DPAP1 (Q8IIJ9 whole entry, looked up): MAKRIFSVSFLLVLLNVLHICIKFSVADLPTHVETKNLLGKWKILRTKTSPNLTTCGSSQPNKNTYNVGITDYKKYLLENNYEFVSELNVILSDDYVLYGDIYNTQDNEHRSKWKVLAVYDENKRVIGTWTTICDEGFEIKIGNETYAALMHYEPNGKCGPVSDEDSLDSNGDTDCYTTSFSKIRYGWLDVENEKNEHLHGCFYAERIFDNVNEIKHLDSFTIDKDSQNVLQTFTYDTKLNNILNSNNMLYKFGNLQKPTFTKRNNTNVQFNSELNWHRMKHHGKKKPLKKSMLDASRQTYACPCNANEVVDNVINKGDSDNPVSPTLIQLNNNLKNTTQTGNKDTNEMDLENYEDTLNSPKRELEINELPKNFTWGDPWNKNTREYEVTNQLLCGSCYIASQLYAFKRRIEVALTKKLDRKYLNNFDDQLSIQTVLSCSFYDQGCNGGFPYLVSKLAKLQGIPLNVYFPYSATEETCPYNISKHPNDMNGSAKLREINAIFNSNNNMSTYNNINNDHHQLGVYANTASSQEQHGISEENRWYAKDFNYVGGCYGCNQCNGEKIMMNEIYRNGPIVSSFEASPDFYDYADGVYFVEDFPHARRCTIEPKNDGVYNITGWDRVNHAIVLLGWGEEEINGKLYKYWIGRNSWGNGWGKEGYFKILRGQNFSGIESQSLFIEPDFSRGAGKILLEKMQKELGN

Compound | % Inhibition @ 10 uM [%]
COC(=O)C1=C(C)OC(N)=C(C#N)C1c1ccccc1F (stereo not drawn) | 5.85
CCOc1ccc(CCNC(=O)c2cc3c(C)nccc3nc2O)cc1OCC | -4.53
O=C(CCn1cncn1)N1CCN(S(=O)(=O)c2ccccc2)CC1 | 0.895
COc1ccc(C)cc1N(CC(=O)N1CCc2ccccc2C1)S(C)(=O)=O | -5.82
COc1ccccc1OCCOc1ccccc1OC | 7.5
COc1ccc(C(=O)Nc2cc(-c3ccccc3)nn2C(=O)c2ccc(OC)cc2)cc1 | 1.84
OC1CCCCC1C1(NC(=S)Nc2ccccc2)CCCCC1 (stereo not drawn) | 3.16
CCCc1[nH]nc2c1C(c1c[nH]nc1-c1ccc(F)cc1)C(C#N)=C(N)O2 (stereo not drawn) | 0.658
O=CN1CCN(Cc2ccc(Br)cc2)CC1 | -4.14
C=CCNC(=O)/C(C#N)=C/c1c(Oc2ccccc2)nc2ccccn2c1=O | -5.11
COc1ccc(N2CCN(Cc3ccc(OC)cc3OC)CC2)cc1 | 3.01
COc1ccc(Br)cc1C1C2=C(O)CCCC2=NC2=C1C(=O)CCC2 (stereo not drawn) | -1.16
Cc1ccc(NC(=O)CSc2nc(N)c3c4c(sc3n2)COC(C(C)C)C4)cc1 (stereo not drawn) | 18.6
Cc1ccc(OCC(=O)N(Cc2ccco2)Cc2ccccc2Cl)cc1 | -14.2
COc1ccc(CN2CCCCC2)c(C)c1C | 1.74
COc1ccc(-c2[nH]nc3c2C(c2cccs2)C2=C(O)CC(C)(C)CC2=N3)cc1 (stereo not drawn) | 12.2
CCOCCCNC(=O)C1c2ccccc2C(=O)N(CCOC)C1c1c[nH]c2ccccc12 (stereo not drawn) | -4.66
COc1ccc(S(=O)(=O)NCc2ccccc2Cl)cc1Br | -2.32
Cn1c(SCc2nc(-c3ccc(Cl)cc3)no2)nnc1-c1ccccc1 | -2.21
N#CC1Cn2ccc3cccc(c32)C1=O (stereo not drawn) | -4.23
CCCNCc1c(C(=O)O)n(Cc2ccc(C)cc2)c2ccccc12 | 5.09
CC(NC(=O)CCn1c(=O)c2cccn2c2cccnc21)C12CC3CC(CC(C3)C1)C2 (stereo not drawn) | 2.83
CCC[C@@H](/C=C/S(=O)(=O)c1ccccc1)NC(=O)[C@@H](Cc1ccccc1Cl)NC1=NS(=O)(=O)c2ccccc21 | 0.079
CCN(CC)CCCNC(=O)c1cnn2c(C)c(Cc3c(C)cc(C)cc3C)c(C)nc12 | -5.8
COCCn1c(C)cc(/C=C2/NC(=O)N(Cc3ccccc3F)C2=O)c1C | -2.04

Compound | % Inhibition @ 10 uM [%]
NC(=O)c1nn(-c2ccccc2)nc1NC(=O)COc1nsnc1N1CCOCC1 | -2.19
COc1ccc(CN2C(=O)c3cccnc3C2=O)cc1S(=O)(=O)NCc1cccnc1 | 2.09
O=C(NCCCC[C@H](NC(=O)[C@H](Cc1ccc2ccccc2c1)NC(=O)OCc1ccccc1)C(=O)C[N+](=O)[O-])OCc1ccccc1 | -6.56
CCOC(=O)c1c(NC(=O)c2cc(=O)c3cc(C)ccc3o2)sc(C)c1C | 0.248
CCC(C)NC(=O)Cn1ncc2c(C)n(Cc3ccccc3F)c(C)c2c1=O (stereo not drawn) | -2.17
Cc1onc(-c2ccccc2Cl)c1C(=O)Nc1nnc(Cc2ccc(Cl)cc2)s1 | -6.69
CN1CCC(N(C)Cc2ccccc2C(F)(F)F)CC1 | -0.197
Cc1cccc(CN2CCC(CNC(=O)Cn3ncc4c5ccccc5nc-4c3O)CC2)c1 | 1.9
CC(=O)Nc1ccc(CN2CCN(c3ccccc3F)CC2)cc1 | -1.07
Cc1ccc(S(=O)(=O)Nc2ccccc2C2=N[C@@H](C(C)C)CO2)cc1 | -3.25
O=C(Nc1ccccc1)c1ccncc1 | -1.45
CC1=C(C(=O)OCc2ccccc2)C(c2ccc(N(C)C)cc2)NC(S)=N1 (stereo not drawn) | -4.21
C=CCNC(=O)c1cc(-c2cc(OC)ccc2OC)on1 | 0.0221
O=C(CCc1ccccc1)NCc1nc(-c2ccccc2)no1 | 0.486
COc1cc(OC)cc(C(=O)N2CCN(C3CCN(Cc4ccccc4)CC3)CC2)c1 | 8.09
CC(NC(=O)c1ccco1)c1cc2c(cc1Br)OCCCO2 (stereo not drawn) | 5.39
COCCn1c(SCC(=O)NCC2CCCO2)nc2c(c1=O)SCC2 (stereo not drawn) | -4.16
CCOC(=O)c1cc(C(C)=O)n2ccccc12 | -3.85
Nc1ccc(-c2nc3cc(-c4nc5cc(N)ccc5[nH]4)ccc3[nH]2)cc1 | 1.64
CC1CCN(S(=O)(=O)N2CCCC(C(=O)N3CCN(c4ncccn4)CC3)C2)CC1 (stereo not drawn) | 1.25
CCOC(=O)N1CCN(C(=O)C2CCCN(c3ncnc4c3nc3n4CCCCC3)C2)CC1 (stereo not drawn) | 8.12
Cn1c(=O)c2c(nc(CN3CCCCC3)n2CCCO)n(C)c1=O | -3.46
COc1ccc2c(Sc3ccccc3)c(C(=O)N3CCCCC3)[nH]c2c1 | -2.61
COc1ccc(C(=O)Nc2sc(C)c(C)c2C(N)=O)cc1OC | 0.431
CCOc1c(Br)cc(/C=C2\SC(=O)N(C)C2=O)cc1OC | 5.37

Compound | % Inhibition @ 10 uM [%]
Cn1c2c(s/c1=N\C(=O)c1cccnc1)CCc1ccccc1-2 | 1.86
COc1ccc(/C=C/c2nc(C#N)c(NCc3cccnc3)o2)cc1OC | 5.68
Cc1ccc(-c2csc(/C(C#N)=C\c3ccc(F)cc3)n2)cc1 | -4.4
Cc1ccc(/C=c2\sc3nnc(-c4ccccc4C)n3c2=O)cc1 | 1.62
FC(F)(F)c1cc(NCc2ccccc2)nc(-c2ccccc2)n1 | 5.09
O=[N+]([O-])c1ccc(-c2nc(-c3ccccc3)no2)c(Cl)c1 | 3.32
O=C1CCN(C(=O)c2ccccc2)[C@@H]2CCCC[C@H]12 | 1.4
O=C1NC(=S)N(c2ccc(Cl)cc2)C(=O)/C1=C/c1ccc2c(c1)OCO2 | 4.88
COc1ccccc1/C=C/C1=CCN(C)CC1 | 2.58
Cc1ccc2nc(C)c(CN(C)C3CCCCC3)c(O)c2c1 | 2.39
CC(C)(C)C1CCc2c(sc(NC(=O)COc3ccc(F)cc3)c2C(N)=O)C1 (stereo not drawn) | 6.65
CCc1ccccc1NC(=O)Cn1cnc2ccccc2c1=O | -4.62
CCC(Cc1ccccc1)/N=c1/c(-c2ccccc2)c(O)c1=O (stereo not drawn) | -2.28
c1ccc2c(c1)nnn2Cc1nnc2sc(-c3ccc4c(c3)OCCO4)nn12 | 19
COC(=O)NCc1ccc(CNC(=O)OC)cc1 | -2.9
Cn1c(=O)[nH]c(=O)c2c1nc(N1CCCCC1)n2CC(O)COc1cccc2ccccc12 (stereo not drawn) | -10.9
COc1cc(NC(=O)c2ccnn2C)c(OC)cc1Cl | -10.8
CCCC[C@H](NC(=O)[C@@H](NC(=O)OCc1ccccc1)[C@@H](C)CC)C(=O)CO | 2.22
CCn1c2ccccc2c2cc(CN3CCCN(C)CC3)ccc21 | 1.48
COc1ccc(-c2cn3c(n2)sc2cc(C(=O)N4CCC5(CC4)OCCO5)ccc23)cc1 | 32.8
Cc1cc(Cl)ccc1OC(C)C(=O)NCC1CCCO1 (stereo not drawn) | -1.06
COc1ccc(CN2CCCC(C(=O)N3CCCCCC3)C2)cc1 (stereo not drawn) | -2.98
CCOc1ccccc1C(=O)Nc1ccc(Cl)cc1F | 6.69
CC(=O)Nc1ccc(NC(=O)CN(C)S(=O)(=O)c2cc(Cl)ccc2Cl)cc1 | -11.5
COC(=O)c1cccnc1-c1ncccc1C(=O)OC | -3.92

Compound | % Inhibition @ 10 uM [%]
COC(=O)C1=CN(C2CC2)C=C(C(=O)OC)C1c1cc(Br)c(OC)c(OC)c1 | -5.17
COc1ccc(C2=NN(Cc3c(F)cccc3Cl)C(=O)CC2)cc1 | 2.35
CNc1ncc(Br)nc1Br | -2.83
COc1ccc2c(c1OC)C(=O)N(C(C)C(=O)O)C2=O (stereo not drawn) | -3.19
COc1cc(NC(=O)c2cc3ccccc3o2)ccc1NC(=O)c1ccco1 | -7.76
Cc1ccc(C(=O)Nc2ccc(C)cc2Br)cc1 | 4.6
O=C(Cc1ccc(F)cc1F)Nc1ccc(Cl)cc1 | -2.54
CC(C)Cn1c(CCCNC(=O)c2ccccc2)nc2ccccc21 | 4.77
CCOC(=O)C1CCCCN1C1CCCC(C)C1 (stereo not drawn) | -3.6
Cc1ccc(Cn2c(=O)c3ccccc3n3c(CCC(=O)N4CCC(C)CC4)nnc23)cc1 | -2.42
COc1ccccc1Oc1ccc(S(=O)(=O)Nc2ccncc2)cc1 | -6.74
O=[N+]([O-])c1cccc(CN2CCC(O)CC2)c1 | -3.95
CN(C)CCNC(=O)CCn1nc(-c2ccc(Cl)cc2)ccc1=O | 1.62
CCCCCC(=O)Nc1ncc2c(n1)CC(c1cccc(Cl)c1)CC2=O (stereo not drawn) | 3.43
COCCNC(=O)CSc1[nH]c(-c2ccc(OC)c(OC)c2)nc1-c1ccc(C)cc1 | 0.163
CCC(C)[C@H](NC(=O)c1cccc(CNC(=O)OC(C)(C)C)c1)C(=O)N[C@@H](CCc1ccccc1)C(=O)CNS(=O)(=O)c1ccc2oc3ccccc3c2c1 (stereo partly drawn) | 3.66
COc1ccc(OC)c(NC(=O)c2sc3nc4c(cc3c2N)CCCCC4)c1 | 2.84
CC(C)(Oc1cccc2c1sc1ccccc12)C(=O)O | 3.69
COc1ccc(/N=C2/S/C(=C\c3ccc(O)c(OC)c3)C(=O)N2C)cc1 | 16.4
COCCNC(=O)C1c2ccccc2C(=O)N(C)C1c1cccs1 (stereo not drawn) | -3.27
O=C(c1ccc(CNS(=O)(=O)c2ccccc2)cc1)N1CCC2(CC1)OCCO2 | -0.00718
COc1cccc(/C=C/C(=O)c2ccncc2)c1 | 4.55
CN1CCN(Cc2cccnc2)CC1 | -3.65
CCOc1cc(C2C3=C(CCCC3=O)OC3=C2C(=O)CCC3)ccc1OCc1ccc(C(=O)O)cc1 | -2.98
